Over roughly 33,000 sequences, “E-score (-0.5 to 0.5)” has its median near -0.012; the highest 2% begin near 0.27. The list shows a part of the results.
molecular target: T1, Vhr1 (UniProt P40522); experiment: PBM E-score (8-mer binding enrichment) (E-score (-0.5 to 0.5)); higher = stronger / more preferred TF binding; most listed sequences are background and not binding sites; details: protein concentration: 200 nM; construct: GST-full length
T1 sequence: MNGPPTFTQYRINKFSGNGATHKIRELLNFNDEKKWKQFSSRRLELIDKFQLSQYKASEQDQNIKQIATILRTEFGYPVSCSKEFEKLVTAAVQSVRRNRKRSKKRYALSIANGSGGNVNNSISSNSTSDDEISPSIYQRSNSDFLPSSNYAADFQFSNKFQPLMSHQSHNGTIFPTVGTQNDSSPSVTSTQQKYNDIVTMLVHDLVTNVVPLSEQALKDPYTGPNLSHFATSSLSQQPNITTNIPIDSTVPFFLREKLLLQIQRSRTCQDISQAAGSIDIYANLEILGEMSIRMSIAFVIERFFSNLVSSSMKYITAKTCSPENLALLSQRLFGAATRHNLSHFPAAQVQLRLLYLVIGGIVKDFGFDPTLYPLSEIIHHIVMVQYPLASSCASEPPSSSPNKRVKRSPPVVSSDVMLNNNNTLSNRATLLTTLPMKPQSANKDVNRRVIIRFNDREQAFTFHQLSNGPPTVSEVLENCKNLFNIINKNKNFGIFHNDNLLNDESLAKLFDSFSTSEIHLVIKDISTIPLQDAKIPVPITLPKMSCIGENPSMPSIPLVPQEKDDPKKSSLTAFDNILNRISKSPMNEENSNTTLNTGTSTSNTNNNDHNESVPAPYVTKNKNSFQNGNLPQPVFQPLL
Summary of the method: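 PURExpress in vitro transcription/translation supplied GST-tagged yeast transcription factors, either full-length or DNA-binding domain. Applied at about 100-200 nM to universal all-10-mer Agilent arrays double-stranded by primer extension, the bound protein was detected with fluorescent anti-GST. E-scores, modified Wilcoxon-Mann-Whitney statistics, were given by the Universal PBM Analysis Suite to ungapped eight-base words pooled with their reverse complements after masliner normalisation.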

Sequence | PBM E-score
GACCTACC | 0.0703
CCGACTCA | 0.417
CAAGAGTA | 0.167
GAGACCAC | 0.153
CGATCGGA | -0.165
AGTTTGTA | -0.00087
AATCGAAA | -0.152
GCAACGAC | -0.0341
CTCATGTA | 0.183
AAAGCGGG | -0.196
CGCGACTC | 0.449
TATAGAGA | -0.326
CGTGACAC | 0.204
AGCAGATG | -0.0657
CCATTTCA | -0.201
GCCCCTTA | -0.0306
GCCCTAAA | -0.37
ACTCTTCG | -0.0779
ACCAAACG | 0.142
ACTCCAGT | 0.121
GAGTTTAC | -0.096
CTACTGTC | 0.135
ACTAACAT | 0.148
AGTACGAG | 0.146

Sequence | PBM E-score
AACGGCGT | -0.058
CGACTTAG | -0.0762
GCTAACTA | 0.0567
GAGTTCGA | 0.0304
AATCGGGG | -0.0108
AATATAGC | 0.105
AGAAGAAA | -0.201
GCTAGCAA | -0.173
CGCGGGGC | 0.00689
CAGCCGCC | 0.149
ACTAGAGC | -0.134
ACATAGGA | -0.0621
GCTCTCGA | -0.0152
GAGGTCCC | -0.0898
AATTATCG | 0.0253
TGCGCACA | 0.0633
TACTAGTA | 0.0954
ATATTACC | 0.213
AGCCTAGC | -0.0849
AACCCTCT | -0.256
AGACCCGA | 0.162
CCGCGTCA | -0.07
AATCGAAG | 0.156
CAATCCTG | 0.122

Sequence | PBM E-score
CACTCCGG | 0.27
ATGGCTGA | 0.108
CGCCGGAC | -0.0925
CCGATGCC | -0.115
ATTTGCGG | -0.0102
TAGCGAGA | -0.0364
AACCCGAA | -0.016
TGCTACCA | -0.0491
CTACACTC | 0.149
ACCTCTTG | -0.0906
TAGCACGA | -0.101
CCGGGTAC | 0.089
CTCACCCA | 0.342
ATTAGACC | -0.0612
CCGCAAAA | -0.114
CAACGACC | 0.0847
GTGGGAAA | 0.00896
AGGACCCC | -0.175
CGGGCCCA | -0.136
CCGATTCA | 0.00961
ACAACTTC | -0.0115
CGGCCTCA | 0.024
GAATTAGA | -0.172
ACACTTTG | -0.0809

Sequence | PBM E-score
GCTGCAAA | -0.127
TTATGAAA | 0.0627
AGCTCGTC | -0.119
GACTATCC | 0.242
ATTAGTAG | -0.0213
GCCACGGA | 0.00457
AACAACTT | -0.0839
CTCCCATC | 0.154
CAGAGACA | -0.151
ACACCTCT | 0.128
GACTGGGC | 0.0779
GAATACTC | 0.0679
ACGTGGGG | -0.242
ATACGAGA | -0.189
CGATCTGC | 0.0306
GCGAGGTA | -0.113
GTCGATGA | 0.119
CCGAGGCC | 0.0312
CAACTGTC | -0.0789
ATACTTCC | -0.079
CCTCTAGA | -0.178
ATACTTGC | 0.102

Reference: the supplement of paper PMC3334620
